Measurements: ChEMBL document CHEMBL1157539, “Thousands of chemical starting points for antimalarial lead identification” (Nature, 2010)
Over roughly 13,000 compounds, “IFI” has its median near 4; the highest 2% begin near 17. Some of the results follow.

assay: GSK_TCMDC: Inhibition Frequency Index (IFI). The number of non-kinase HTS assays where a compound showed > 50 % inhibition, expressed as a percentage of the number of such assays in which the compound was tested (-0 is zero); format: functional

| SMILES | IFI [%] |
| --- | --- |
| CC(C)(C)OC(=O)c1c(NC(=O)/C=C/c2ccc(O)c(O)c2)sc2c1CCCC2 | 6.38 |
| Cc1ccc(C)c(-n2c(SCC(=O)Nc3ccc(C(N)=O)cc3)nnc2-c2cccc(Cl)c2)c1 | 4.5 |
| Cc1c(-c2cccc(C(C)(C)NC3CCN(Cc4ccccc4)CC3)c2)cnc(N)c1C | 2.99 |
| CN1CCN(CCCN(Cc2csc(-c3ccc(CNCc4ccccc4)cc3)n2)S(=O)(=O)c2cccc3cccnc23)CC1 | 6.9 |
| Nc1cccc(CNCc2ccc(-c3cccc(-c4nc5cc(F)ccc5[nH]4)c3)cc2)c1 | 7.77 |
| O=C(/C=C/c1ccc(Cl)c(Cl)c1)NCCCCCN1CCCN(C(=O)Nc2ccc(C(F)(F)F)cc2)CC1 | 10.7 |
| COc1ccc(NC(=O)c2cccc(Br)c2)cc1N1CCN(CCCCCCCN2CCN(c3cc(NC(=O)c4cccc(Br)c4)ccc3OC)CC2)CC1 | 5.97 |
| CNCCNCc1ccc(-c2ccc(-c3nc4ccccc4[nH]3)s2)cc1 | 8.91 |
| Cc1cc(C(=O)Nc2ccc(-c3ccccc3)cc2)no1 | 0 |
| CNCCNCc1cccc(-c2ccc(-c3nc4ccccc4[nH]3)cc2)c1 | 7 |
| Cc1ccc(-c2nc3cc(C(=O)NC4CCC(N5CCCc6ccc(C#N)cc6C5)CC4)ccc3[nH]2)cc1 (stereo not drawn) | -0 |
| Oc1ccc2ccccc2c1C=NNc1nc(=Nc2ccccc2)[nH]c(=Nc2ccccc2)[nH]1 | 4.93 |
| COc1cccc(CNC(=O)[C@@H]2CN(C(=O)c3ccccc3)CCN2)c1 | -0 |
| N=C(N)NN=CC(=O)Nc1cc([N+](=O)[O-])cc([N+](=O)[O-])c1 | 0.75 |
| COc1cc(F)c2ncc(Cl)c(CCN3CCC(NCc4ccc5c(c4)NC(=O)CS5)CC3)c2c1 | 7.3 |
| c1ccc(-c2nc3ccccc3[nH]2)c(Nc2ccnc3cc(-c4nccs4)ccc23)c1 | 7.14 |
| O=C(Nc1ccc2c(c1)OCCO2)c1cc(-c2cccnc2)nc2ccc(Cl)cc12 | 0.87 |
| Cc1ccc(O)cc1Nc1ccnc2cc(-c3ccc(CN4CCCCC4)o3)ccc12 | 2.9 |
| O=C(Nc1cccc(-c2nc3ccccc3s2)c1)c1ccccc1[N+](=O)[O-] | 2.11 |
| COc1cc(CNCCCCCCNCc2cc(OC)cc3ccccc23)c2ccccc2c1 | 10.1 |
| CN(C)CCOc1cc(NC(=O)Nc2ccc(Oc3ccccc3)cc2)ccc1I | 4.44 |
| Nc1ncc(-c2ccc(F)c(Cl)c2)c(N)n1 | 1.48 |

| SMILES | IFI [%] |
| --- | --- |
| C[C@H](Cc1ccc(S(=O)(=O)c2ccc(C[C@@H](C)NC[C@H](O)c3cccc(Cl)c3)cc2)cc1)NC[C@H](O)c1cccc(Cl)c1 | 22.7 |
| O=C(/C=C/c1ccc(Cl)c(Cl)c1)NCCCCCN1CCCN(C(=O)Nc2ccc(Br)cc2)CC1 | 6.71 |
| O=C(NCCCN1CCN(c2cccc(Cl)c2)CC1)c1ccc(-c2nc3cc(Cl)c(Cl)cc3[nH]2)c(F)c1 | 0.74 |
| O=C(CCCc1ccccc1)Nc1cccc(N2CCC(N3CCN(c4ccccc4O)CC3)CC2)c1 | 7.14 |
| Cc1ccc2[nH]c(-c3cc(-c4cccc(C#N)c4)cnc3N)nc2c1 | 7.14 |
| CCN1CCC(N(Cc2ccc(-c3ccc(C(F)(F)F)cc3)cc2)C(=O)Cn2c(CCc3cccc(F)c3F)nc(=O)c3ccccc32)CC1 | 10.3 |
| O=C(Nc1ccc(OC2CCN(Cc3ccsc3)CC2)c(Cl)c1)c1ccco1 | 4.55 |
| Cn1cc(-c2ccnc3[nH]c(-c4cccc(CNC5CCC(O)CC5)c4)cc23)cn1 (stereo not drawn) | 8.11 |
| CC1(C)NC(N)=NC(=N)N1OCc1cccs1 | 1.43 |
| COc1cc(C=NN=c2cc(C)[nH]c3ccccc23)cc(OC)c1OC | 1.46 |
| O=C(Nc1cccc(CN2CCCN(Cc3ccc(O)cc3)CC2)c1)c1ccc(Br)cc1 | 1.52 |
| CC(C)COc1ccc(Cl)cc1Cc1ccc(-c2nc3ccc(Br)cc3[nH]2)o1 | 19.8 |
| c1ccc(Oc2ccc(Nc3ccnc4cc(-c5cccc(CN6CCOCC6)c5)ccc34)cc2)cc1 | 0.75 |
| COc1cc(NC(=O)N2CCOC(CCN3CCC(c4ccccc4)CC3)(c3ccc(Cl)c(Cl)c3)C2)cc(OC)c1OC (stereo not drawn) | 8.16 |
| COC(=O)c1ccccc1COc1ccc(CC2(NC(=O)[C@H](Nc3ccc(C#N)c4ccccc34)C(C)(C)C)CCCC2)cc1 | 1.9 |
| O=C(Cc1cccc(Cl)c1)Nc1ccc(N2CCC(NCc3ccc4ncccc4c3)CC2)cc1 | -0 |
| Cn1cnc(-c2ccc3c(c2)CCN(CCC2CCC(NC(=O)/C=C/c4ccc(F)cc4)CC2)CC3)c1 (stereo not drawn) | 4.29 |
| COc1cccc(-c2ccc3c(-c4ccc(F)cc4)cnc(N)c3c2)c1 | 6.2 |
| N=C(N)c1ccc(Nc2nc(Nc3ccc(-c4ccccc4)cc3)ncc2[N+](=O)[O-])cc1 | 8.65 |
| O=C(c1ccc(-c2ccc(-c3nc4cc(C(F)(F)F)ccc4[nH]3)s2)cc1)N1CCCCC1CN1CCC(O)C1 (stereo not drawn) | 6.14 |
| Cc1ccc(Nc2c3ccccc3nc3ccc(C)cc23)cc1 | 7.38 |
| CN1CCC(Oc2ccc(CN3CC[C@H](NC(=O)c4cc(F)cc(F)c4)C3)c3ccccc23)C1 (stereo partly drawn) | 6.29 |

| SMILES | IFI [%] |
| --- | --- |
| NC(=O)c1cccc(CNCc2ccc(-c3cccc(-c4nc5ccccc5[nH]4)c3)cc2)c1 | 3.88 |
| CCc1ccc(CN2CCC(CNC(=O)c3cc(-c4cccc(C(F)(F)F)c4)cs3)C2)cc1 (stereo not drawn) | 14 |
| COc1ccc(CCNCCCCCCNCCc2ccc(Cl)c(Cl)c2)cc1OC | 2.88 |
| CCCC(=O)Nc1ccc(OCCCN(Cc2ccccc2F)c2ccc(C#N)c(C(F)(F)F)c2)cc1 | 1.45 |
| COc1ccc2ncc(F)c(CCN3CC[C@@H](CNCc4nc5c(cc4C)SCC(=O)N5)C3)c2n1 | 5.83 |
| Cc1ccc(-c2ccc(Cl)cc2Oc2cnc(N)nc2N)o1 | 5.26 |
| Cc1ccc(Nc2ccnc(Nc3ccc(F)c(Cl)c3)n2)cc1O | 6.25 |
| O=C(Nc1ccc(OC2CCN(Cc3ccccc3)CC2)c(Cl)c1)c1ccc(F)cc1 | 1.64 |
| Cc1cc(C)c(NC(=O)N2CCCN(CCCCCNC(=O)/C=C/c3ccc(Cl)c(Cl)c3)CC2)c(C)c1 | 2.01 |
| Cc1cccc2nc(-c3cccc(-c4ccc(NC(=O)C(C)CN(C)C)cc4)c3)[nH]c12 (stereo not drawn) | 5.45 |
| CCCCCCCc1c2c(C)c(C(=O)OCC)nc-2cc2n1CC(C)=C2C | 4.69 |
| CCN(CC)CCNc1cc(C)nc(NC(=N)Nc2ccc(Cl)cc2)n1 | 3.79 |
| c1ccc(CNCc2cccc(-c3ccc(-c4nc5ccccc5[nH]4)s3)c2)cc1 | 3.92 |
| COc1cccc(CNCC(C)(C)c2nc(-c3ccc(Cl)c(O)c3)c(-c3ccncc3)[nH]2)c1 | 5.8 |
| Cc1ccc(O)cc1Nc1ccnc2cc(-c3ccccc3)ccc12 | 10 |
| CCOc1c(N2CCN(CCCCNC(=O)c3ccc(NC(=O)c4ccc(Cl)cc4)cc3)CC2)ccc2ccccc12 | 5.31 |
| CCC[C@@H](C(=O)NCCc1cccc(OC)c1)N1C(=O)c2c(ccc(OC)c2OC)C1C(=O)Nc1c(C)cccc1C (stereo partly drawn) | -0 |
| Cc1ccnc(NC(c2cccc(OCc3ccccc3)c2)c2ccc3cccnc3c2O)c1 (stereo not drawn) | 4.83 |
| Cc1cc(OCCCN2CCCCC2C)ccc1NC(=O)COc1ccc(Cl)cc1C(=O)c1cc(Cl)cc(C#N)c1 (stereo not drawn) | 7.26 |
| O=C(Nc1ccc2c(c1)CCC2)c1cccc(N2CCN(c3ccncc3)CC2)c1 | 7.14 |
| COc1ccc(CN2CCC(CNC(C)c3cccc4ccccc34)CC2)cc1 (stereo not drawn) | 12.9 |
| C=CCNc1cc(-c2ccccn2)nc(-c2ccccn2)n1 | 12.9 |

| SMILES | IFI [%] |
| --- | --- |
| Cc1cccc2nc(-c3cccc(-c4cccc(C(=O)NCCc5cn(C)cn5)c4)c3)[nH]c12 | 3.74 |
| COc1ccccc1CNc1ncc(-c2ccsc2)c(-c2nccs2)n1 | 3.41 |
| COc1ccccc1C1CCN(C2CCC(NC(=O)/C=C/c3cc(F)cc(C(F)(F)F)c3)CC2)CC1 (stereo not drawn) | 11.5 |
| NCCCNc1nccc(N2CCc3ncnc(Nc4ccc(OCc5cccc(F)c5)c(Cl)c4)c3C2)n1 | 12.5 |
| O=C(Cc1ccc[n+]([O-])c1)Nc1cccc(-c2cccc(-c3nc4cc(C(F)(F)F)ccc4[nH]3)c2)c1 | 1.82 |
| COc1ccc2nc(N3CCN(C(=O)OC(C)(C)C)CC3)nc(NCCCc3ccccc3)c2c1 | 5.97 |
| CN1CCCc2ccc(NC(=O)Nc3ccc(-c4ccccc4)cc3)cc2C1 | 7.02 |
| Cn1cnc(CCNC(=O)c2cccc(-c3ccc(-c4nc5cc(F)ccc5[nH]4)cc3)c2)c1 | 3.81 |
| CC(C)(C)c1cc(C(=O)N2CCC(c3ccccn3)CC2)n(Cc2ccccc2)n1 | -0 |
| O=C(Nc1cccc(C(F)(F)F)c1)c1cccc(S(=O)(=O)NCC2CCCN2CC2CCCCC2)c1 (stereo not drawn) | -0 |
| Fc1ccc2cc(C=Cc3ccncc3)[nH]c2c1 | 2.56 |
| Fc1cccc(CNc2ncc(-c3ccsc3)c(-c3nccs3)n2)c1 | 4.55 |
| CCOc1cc(Cc2cnc(N)nc2N)cc(OCC)c1O | 0.75 |
| COc1ccc2nccc(NC(=O)N3CCC(NCc4cc5ccccc5[nH]4)CC3)c2n1 | 2.99 |
| Fc1cccc(COc2ccc(Nc3ncnc4ccc(-c5nnc(C(F)(F)F)o5)cc34)cc2Cl)c1 | 1.46 |
| O=C(/C=C/c1ccc(Cl)c(Cl)c1)N1CCC(CN2CCC(Cc3nc4ccccc4[nH]3)CC2)CC1 | 7.75 |
| COc1ccc2nccc(N3CCC(CCNCc4ccc5c(n4)NC(=O)CO5)CC3)c2n1 | 3.62 |
| CCN(CC)S(=O)(=O)c1ccc(C(=O)Oc2ccccc2N(Cc2ccc(OC)cc2)C2=NS(=O)(=O)c3ccccc32)cc1 | 0.68 |
| O=C(NCC(CCN1CCC(c2c[nH]c3ccccc23)CC1)c1ccccc1)Nc1ccc(Cl)c(Cl)c1 (stereo not drawn) | 15 |
| COc1ccccc1C1CCN(C2CCC(NC(=O)/C=C/c3ccc(C(F)(F)F)cc3F)CC2)CC1 (stereo not drawn) | 8.2 |
| O=C(Cn1c(=O)oc2ccccc21)N1CCC(n2c(=O)n(CCCN3CCOCC3)c3ccccc32)CC1 | 1.8 |
| COc1ccc(-c2cnc3ccc(NCc4ccc(S(N)(=O)=O)cc4)nn23)cc1 | 2.29 |
